# Assay results reported in patent US20230135471A1, “UBIQUITIN VARIANTS WITH IMPROVED AFFINITY FOR 53BP1” (Integrated DNA Technologies, Inc., priority 2021, published 2023).
# Entries after “also recorded” stand apart in the source; their conditions may differ.
# Tests used:
# fragment of 53BP1 = fragment of 53BP1 (Homo sapiens, UniProt Q12888); assay: BLI steady-state response, one site-specific binding fit, fold change in affinity (KA ratio) versus reference variant; settings: for benefit to affinity when added to a base of CM113: FIG. 9C
# From the text: Testing of additional combinations of mutations identified variants with improved affinity over the previous best variant, CM1. In order to further validate the amino acids changes identified in the two-hybrid screen as candidates for improving the affinity of our Ubvs for 53BP1, a subset of the top hits from the screen were individually added to i53, the results of this screen are shown in FIG. 7. For graphs in this invention disclosure labeled as “Fold change in affinity”, affinity is graphed as the association constant (KA) of the ubiquitin variant being tested divided by the KA of the reference ubiquitin variant, typically the base construct upon which further mutations are stacked as determined by calculating each affinity for binding a fragment of 53BP1 (Table 6) using biolayer interferometry (BLI). The BLI steady-state response versus 53BP1 fragment concentration was plotted in prism to calculate the Kd using a one site-specific binding nonlinear fit model. […] In order to validate if CM1 was the best starting combination of mutations for additional stacking, the contribution of each of the 9 mutations present in CM1 relative to i53 was analyzed and is shown in FIG. 8. […] Additional mutations were then added to CM1 either alone or in combination to determine if the affinity could be further improved.
# Testing of additional mutations identified a variant with improved affinity over that of the previously described CM455. In order to determine if the amino acid change made at position 2 (L2M) in CM455 relative to i53 was the optimal amino acid change at that position, we screened additional amino acid changes for their effect on the affinity for binding 53BP1. The fold change in affinity is measured as the association constant (KA) of the ubiquitin variant being tested, divided by the KA of the reference ubiquitin variant (CM489), as determined by calculating each affinity for binding a fragment of 53BP1 using biolayer interferometry (BLI). The BLI steady-state response versus 53BP1 fragment concentration was plotted in prism to calculate the Kd using a one site-specific binding nonlinear fit model. […] Therefore, switching from L2M to L2I in CM455 may result in a ubiquitin variant (CM487) with improved ability to enhance rates of HDR.
# [1] = tested on: HDR at a Cas9 cut site in SERPINC1 in HEK293 cells; assay: HDR at SERPINC1 Cas9 cut site measured by EcoR1 cleavage; format: cell-based, human; settings: FIG. 10B
# Protocol: The dashed line indicates the level of HDR with no Ubv added.
# To narrow down which variant may have the best activity in cells CM138, CM142, CM143, CM147, CM149, CM158 were selected for additional testing. The 53BP1-binding deficiency mutant amino acid substitutions (P69L and L70V) were added to CM142, CM143, CM147, CM149, and CM158 and the effect on affinity was measured using BLI^11. […] CM142 and CM142-DM (CM203) were also tested for their ability to improve the rate of HDR in cells (FIG. 10B).
# [2] = tested on: HDR at a Cas9 cut site in SERPINC1 in HEK293 cells; assay: Perfect HDR (6 nt EcoR1 insert) at SERPINC1 Cas9 cut site, Ubv protein nucleofected with Cas9 RNP, measured by NGS; format: cell-based, human
# From the text: In order to test the effects of the improved affinity of the combination mutant Ubvs for 53BP1 on HIDR, i53, CM1, and CM7 Ubvs were purified and used for testing in human cells (Table 3). The Ubvs were delivered alongside Cas9 V3 (JDT) RNP targeting a site in SERPINC1 with single stranded Alt-R HIDR Donor Oligoes (JDR) to introduce an EcoR1 cut site sequence (GAATTC) at the Cas9 cut site upon successful HIDR (Table 5, see methods described below).
# Genome editing was mediated via IDT Alt-R Cas9 ribonucleoprotein (RNP) complexes delivered by Lonza nucleofection in concert with single-stranded oligodeoxynucleotide (ssODN) HDR repair templates. The specific repair event was the insertion of the 6-nt EcoR1 sequence (5′-GAATTC-3′) directly at the canonical Sp Cas9 cut site (between bases 3 and 4 in the 5′-direction from the PAM sequence). HDR complexes were formed with a nuclease-specific guide for the SERPINC1 gene (Table 5). HDR template consisted of a chemically modified ssODN synthesized as IDT Alt-R HDR Donor Oligos with the Alt-R modification. […] HDR was measured by NGS.
# To determine if CM455 is able to enhance rates of HDR, we tested its ability to improve rates of HDR measured by introduction of an EcoR1 cut site sequence at SERPINC1 as described in Example 3 with the exception that editing was measured using next generation sequencing.
# Chain of fragment of 53BP1 (Q12888 1484-1603, looked up): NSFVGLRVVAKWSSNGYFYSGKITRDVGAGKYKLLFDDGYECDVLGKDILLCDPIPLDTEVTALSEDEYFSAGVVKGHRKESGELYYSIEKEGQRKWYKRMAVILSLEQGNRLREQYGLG
molecule,measurement,setting,value
CM142: stacked-mutation ubiquitin variant where X1 is not M; best tolerance for DM mutations (protein) YLIFVRMLTGKMIELEVEPSDTIENIKAKIQDHEGIPLDQQRLTFQGKLLEDGRTLSDYNLLIDPKKMPLLRMQ,"tolerance of affinity (Ka) for the DM mutations (P69L, L70V)",fragment of 53BP1; FIG. 10A,best tolerance for the DM mutations
same,benefit to rate of HDR compared with i53,[1],significantly increased benefit to HDR over i53
CM487: CM455 switched from L2M to L2I (Q2I relative to WT ubiquitin) (protein) YIIFVRMLTGKMIELEVEPSDTIENIKAKIQDHEGIPLDQQRLTFQGKLLEDGRTLSDYNLTISPEKMAVLRMQ,fold change in affinity for position 2 variants of CM455,"fragment of 53BP1; relative to CM489 (leucine at position 2), FIG. 13",higher affinity than the L2M of CM455; also recorded: improved affinity beyond that of CM455
CM455: P62T and L69A mutations relative to CM476; contains none of the i53 mutations (protein) YMIFVRMLTGKMIELEVEPSDTIENIKAKIQDHEGIPLDQQRLTFQGKLLEDGRTLSDYNLTISPEKMAVLRMQ,affinity for 53BP1 compared with CM1,fragment of 53BP1; BLI,on par with or slightly better than that of CM1; also recorded: affinity comparable to CM1
same,rate of perfect HDR compared with i53,[2],boost HDR rates to higher levels and at lower concentrations than i53
"CM131: base of CM113 plus M1Y, V26I, L73M (protein) MHHHHHHGGSGYLIFVRMLTGKMIELEVEPSDTIENIKAKIQDHEGIPPDQQRLAFQGKSLEDGRTLSDYNLLIDPKKMPLLRMR",benefit to affinity when added to a base of CM113,fragment of 53BP1,notably beneficial
"CM135: base of CM113 plus E16M, N25V, Q40E, S49L (protein) MHHHHHHGGSGMLIFVRMLTGKMIELMVEPSDTIEVVKAKIQDHEGIPPDEQRLAFQGKLLEDGRTLSDYNLLIDPKKMPLLRLR",benefit to affinity when added to a base of CM113,fragment of 53BP1,notably beneficial
"CM142-DM: CM142 with the DM mutations (P69L, L70V) (protein) MHHHHHHGGSGYLIFVRMLTGKMIELEVEPSDTIENIKAKIQDHEGIPLDQQRLTFQGKLLEDGRTLSDYNLLIDPKKMLVLRMQ",benefit to rate of HDR compared with i53,[1],improved benefit to HDR over i53
"CM134: base of CM113 plus E18M, K48T, E51D, S57G (protein) MHHHHHHGGSGMLIFVRMLTGKMIELEVMPSDTIENVKAKIQDHEGIPPDQQRLAFQGTSLDDGRTLGDYNLLIDPKKMPLLRLR",benefit to affinity when added to a base of CM113,fragment of 53BP1,notably beneficial
